In PubChem BioAssay AID1508642 (National Center for Advancing Translational Sciences (NCATS), 2021):
The campaign covered roughly 43,000 compounds. About 200 (0.47%) were called active. Another 12% or so got no clear call; they are omitted. Calls follow the shape of the dose curve; as a rule, active = well fitted cell-killing curve with a large enough effect; inconclusive = small, poorly fitted or top-dose-only effect, or effect the other way; inactive = flat fitted curve, though single readings scatter. This is one part of the list.

Experiment: Cell viability qHTS assay in S16 Pmp22-F2sN cells; also: nearly all actives have a fitted effect of over 65% in size
Details: S16 Pmp22-F2sN Schwann cells (luciferase reporters placed in the Pmp22 gene) viability, CellTiter-Glo, 24 h; series mostly up to 57.5 µM; activity change, negative = cytotoxicity: at the top concentration
In short: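 S16 Schwann cells carrying the Pmp22-F2sN reporter, seeded in 1536-well format, were exposed to library compounds for 24 h at 37C. Viability was read as CellTiter-Glo luminescence after 15 min at room temperature.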
% is scaled to controls: 0 for no effect and ±100 for the full control effect.

Compound	activity change, negative = cytotoxicity
CCc1ccccc1NC(=O)N1CCCn2nc(C)cc21	inactive: -1.1%
CCOC(=O)c1ccc(NC(=O)Cn2cc(C(=O)C3CC3)c3ccccc32)cc1	inactive: 7.96%
C=CCc1cccc2cc(-c3nc4ccc(C)cc4[nH]3)c(=O)oc12	inactive: 1.11%
COc1ccccc1CNC(=O)CCc1c(C)c2cc3c(C)c(C)oc3cc2oc1=O	inactive: -2.22%
COc1ccc(CCNC(=O)c2ccc3c(c2)N(Cc2ccc(F)cc2)C(=O)c2ccccc2S3(=O)=O)cc1OC	inactive: -5.84%
COc1cc(OC)cc(C(=O)Nc2ccc(-c3nc4ccccc4s3)cc2C)c1	inactive: 14.6%
COCC(=O)n1nc(-c2ccco2)nc1NCc1ccccc1Cl	inactive: -0.345%
CCOC(=O)c1ccc(NC(=O)CCCn2c(=O)c3cccn3c3ccccc32)cc1	inactive: 13.4%
Cc1ccccc1Nc1c(-c2c(F)cccc2Cl)nc2ccc(Br)cn12	inactive: 1.31%
Cc1c(C(=O)Nc2cccc(C(F)(F)F)c2)sc2nc[nH]c(=O)c12	inactive: -26.4%
COc1ccc(C(=O)/C=C/c2cn(CC(O)CN3CCc4ccccc43)c3ccccc23)cc1OC (stereo not drawn)	inactive: 5.4%
COCc1nnc(NC(=O)c2cc(OC)c(OC)c(OC)c2)s1	inactive: -6.27%
Cc1ccc(NC(=O)C2CCCN(S(=O)(=O)c3c(C)n[nH]c3C)C2)c(C)c1 (stereo not drawn)	inactive: -6.02%
COc1cccc(CNS(=O)(=O)c2cnc(N)nc2)c1	inactive: 12.4%
CC1CCCN(c2cc3c(cc2F)c(=O)c(S(=O)(=O)c2cccc(Cl)c2)cn3Cc2ccccc2)C1 (stereo not drawn)	inactive: -3.19%
O=C(Nc1c(C(=O)N2CCN(c3ccccc3F)CC2)oc2ccccc12)c1cccc(F)c1	inactive: 1.79%
CC(C)NC(=O)c1ccc(Cn2c(SCc3ccc(F)cc3)nc3cccnc32)cc1	inactive: -15.5%
O=C(CCn1c(=O)c2cccn2c2cccnc21)N1CCN(c2cccc(C(F)(F)F)c2)CC1	inactive: 1.19%
COc1ccc(CCNC(=O)C(=O)NCC(c2ccco2)S(=O)(=O)c2ccc(C)cc2)cc1 (stereo not drawn)	inactive: -25.6%
COc1ccc(NC(=O)C(NS(=O)(=O)c2cccc3nsnc23)C(C)C)cc1 (stereo not drawn)	inactive: 12.1%
O=C(Cn1c(=O)oc2cc(S(=O)(=O)NCc3ccccc3)ccc21)Nc1cccc(F)c1	inactive: 9.16%
COC(=O)c1ccc(C2Nc3c(C)cccc3-c3cc(C)nn32)cc1 (stereo not drawn)	inactive: -22.9%
COc1ccccc1CNc1nc2c(S(=O)(=O)c3ccc(C)c(C)c3)nnn2c2ccc(Cl)cc12	inactive: 1.6%
O=C(c1ccc(F)cc1)c1cn(Cc2ccccc2)c2cc3c(cc2c1=O)OCO3	inactive: -7.63%

Compound	activity change, negative = cytotoxicity
CCOC(=O)c1c(NC(=O)c2cc(-c3ccc(Br)cc3)on2)sc(C(C)=O)c1C	inactive: -1.59%
COc1ccc(NC(=O)c2cc3ccccc3o2)c(OC)c1	inactive: 7.22%
COc1cc(C(=O)Nc2ccc(NC(=O)c3ccc(C(C)(C)C)cc3)cc2)cc(OC)c1OC	inactive: -21%
O=C(COCc1cc(-c2cccs2)on1)N1CCN(c2ccccc2)CC1	inactive: -6.28%
CCC(C(=O)NCc1cc(OC)ccc1OC)n1nc(C)c2sc3ccccc3c2c1=O (stereo not drawn)	inactive: 12.4%
COc1cccc(C(=O)N2CCC(C(=O)Nc3cccc(Cl)c3)CC2)c1	inactive: 0.988%
Cc1cccc(CNC(=O)c2ccc(N3Cc4ccccc4Oc4ncccc43)s2)c1	inactive: -10.3%
CN(C)c1cccc(C(=O)N2CCC(c3c[nH]c4ccccc34)(c3c[nH]c4ccccc34)CC2)c1	inactive: -10.5%
COc1ccc(OC)c(CNC(=O)C2CCCN(c3ncnc4onc(-c5ccc(F)cc5)c34)C2)c1 (stereo not drawn)	inactive: 2.7%
Fc1ccc(NCc2nnc3n2CCCCC3)cc1Cl	inactive: -1.44%
CC(C)c1ccc(N2C(=O)CSC23C(=O)N(Cc2cccc(F)c2)c2ccccc23)cc1 (stereo not drawn)	inactive: -20.1%
COc1cccc(C(=O)Nc2nc3nc(-c4ccccc4)cc(=O)n3[nH]2)c1	inactive: -1.3%
CC(=O)c1ccc(NC(=O)CN2C(=O)CN(C)C(=O)c3ccccc32)cc1	inactive: 19.7%
COc1cccc(CNC(=O)C2=C(C)C(=O)OC23CCN(C(C)=O)CC3)c1OC	inactive: -2%
COc1cc(Nc2nc(SCc3ccc(Cl)cc3)nc3ccccc23)cc(OC)c1	inactive: -12.5%
COc1ccc(-c2oc3ncn4nc(COc5cccc(C)c5C)nc4c3c2-c2ccc(OC)cc2)cc1	inactive: 1.67%
O=C1c2oc3ccccc3c(=O)c2C(c2cccc(O)c2)N1c1nncs1 (stereo not drawn)	inactive: 6.16%
CCOC(=O)c1c(-c2ccc(C)cc2)csc1NC(=O)c1cc(=O)c2cc(C)ccc2o1	inactive: -8.26%
O=C(Cn1c(=O)nc(-c2ccccc2)c2ccccc21)NCCc1ccccc1	inactive: 3.81%
CCc1ccccc1N(CC)C(=O)c1c(C)oc2ncn(C)c(=O)c12	inactive: 5.6%
Cc1ccc(-c2nc(S(=O)(=O)c3ccccc3)c(N3CCN(c4ccccc4)CC3)o2)cc1	inactive: 3.82%
Cc1ccc2nc(COc3ccccc3NC(=O)COc3ccc(F)cc3)cc(=O)n2c1	inactive: -0.439%
CCc1ccccc1NS(=O)(=O)c1ccc2[nH]cc(C(=O)N(CC(C)C)CC(C)C)c(=O)c2c1	inactive: -0.083%
CCc1ccc2nc(N(CCN(CC)CC)C(=O)c3cccs3)sc2c1	inactive: -5.73%

Compound	activity change, negative = cytotoxicity
COc1ccc(NC(=O)C2CCN(S(=O)(=O)c3ccc4c(c3)CCCC(=O)N4)CC2)cc1OC	inactive: -5.23%
O=C(Nc1ccccc1C(=O)OCc1cc(=O)n2c3c(sc2n1)CCCC3)c1ccc(F)cc1	inactive: -16%
COc1ccc(-c2nc(SCC(=O)Nc3ccc4c(c3)OCCO4)c(-c3ccc(F)cc3)[nH]2)cc1	inactive: -25.3%
Cc1cccc(C(C)C)c1NC(=O)Cn1c(=O)oc2cc(S(=O)(=O)N3CCCC3)ccc21	inactive: 0.312%
COC(=O)c1ccc(Cl)cc1NC(=O)NCCc1c(C)nn(C)c1C	inactive: -4.54%
Cc1c(C(=O)N2CCOCC2)oc2c1-c1nn(CC(=O)NCc3cccc(F)c3)cc1CC2	inactive: 4.89%
CC(C)c1ccc(NC(=O)Cn2c(=O)n(CC3CCC(C(=O)NCCc4ccccc4)CC3)c(=O)c3ccccc32)cc1 (stereo not drawn)	inactive: 18.2%
Cc1ccc(-n2c(=O)c3cccnc3n2CC(=O)Nc2cc(C)cc(C)c2)cc1	inactive: -5.43%
COc1ccccc1CNC(=O)Cn1c(=O)nc(-c2ccccc2F)c2cc(Cl)ccc21	inactive: 1.75%
CCOC(=O)c1cccc(NC(=O)CCS(=O)(=O)c2ccc3c(c2)CC(=O)N3C)c1	inactive: 10.8%
Cc1ccc(S(=O)(=O)C2(C(=O)Nc3ccc(Cl)c(C(F)(F)F)c3)CC2)cc1	inactive: -16.5%
Cc1cccc(N2CCN(C(=O)CS(=O)(=O)c3cccc4nsnc34)CC2)c1C	inactive: 2.86%
Cc1ccc(Cl)cc1N1CCN(C(=O)C2CCC(CNS(=O)(=O)c3cccs3)CC2)CC1 (stereo not drawn)	inactive: -20.5%
Cc1ccc(CNc2ccc(-c3nc(-c4ccncc4)no3)cc2[N+](=O)[O-])cc1	inactive: 12.4%
COc1ccc(-n2ccnc2SCC(=O)Nc2ccc3c(c2)OCO3)cc1	inactive: 1%
COC(=O)CN1C(=O)C(C)(C)c2cc(S(=O)(=O)Nc3ccc(Br)cc3F)ccc21	inactive: 4.71%
Cc1[nH]c2ccc(Br)cc2c1CCNC(=O)c1cc2ccccc2oc1=O	inactive: -5.39%
CCN(CC)c1ccc(NC(=O)CN2CCN(c3ccccc3F)CC2)cc1	inactive: 0.0073%
O=S(=O)(NCCS(=O)(=O)N1CCN(c2cccc(Cl)c2)CC1)c1ccc(F)cc1	inactive: -1.99%
CCOc1ccc(C2=NC(c3cccs3)=Nc3ccc(CC)cc3N2)cc1OCC	inactive: -3.18%
O=C(NCc1ccccc1F)c1sc2ncccc2c1-n1cccc1	inactive: -12.3%
CCn1cc2nc(SCC(=O)Nc3ccc(C)cc3)n(Cc3ccc(C)cc3)c(=O)c2n1	inactive: 3.31%
Cc1cccc(NC(=O)CN2C(=O)C(c3ccccc3)=NC23CCC(C)CC3)c1 (stereo not drawn)	inactive: -3.31%
CC(=O)c1cccc(-n2c(=O)c3c4c(sc3n(Cc3cccc(C)c3)c2=O)CN(C(C)=O)CC4)c1	inactive: 0.866%

Compound	activity change, negative = cytotoxicity
Cc1cc(C)n(CCc2nc3c4ccccc4nc(N4CCN(c5cccc(C)c5C)CC4)n3n2)n1	inactive: 3.1%
CC(=O)N1CCCc2cc(S(=O)(=O)N3CCCC(C(=O)Nc4ccc(C)cc4C)C3)ccc21 (stereo not drawn)	inactive: -0.328%
COc1ccc(-n2nc3cc(C)c(NC(=O)c4ccc(-c5ccc(Br)cc5)o4)cc3n2)cc1	inactive: 5.93%
CSc1ncc(Cl)c(C(=O)Nc2ccc(S(=O)(=O)Nc3nccc(C)n3)cc2)n1	inactive: -16.8%
CCCCN(C)CCCNC(=O)CN1N=C(c2ccc(OC)cc2)CCC1=O	inactive: -1.39%
CC(=O)c1ccc(NC(=O)CCc2c(C)nc3c(c2C)c(=O)n(C)c(=O)n3C)cc1	inactive: 1.31%
Cc1c2cnn(CC(=O)N3CCN(c4ccccc4)CC3)c(=O)c2c(C)n1Cc1ccccc1Cl	inactive: 7.17%
Cc1ccc(CCNC(=O)c2ccc3[nH]c(C)c(C)c3c2)cc1	inactive: -4.07%
COc1ccc(CCNC(=O)c2cc3n(n2)CCCN(Cc2ccc(C)cc2)C3=O)cc1OC	inactive: -13.6%
Cc1ccc(-c2onc(C)c2C)cc1S(=O)(=O)NCc1ccc(N(C)C)cc1	inactive: -0.741%
CCc1ccc(NC(=O)Cn2c(=O)n(CCCCC(=O)NCc3ccccc3Cl)c(=O)c3ccccc32)cc1	inactive: 16.8%
Cc1cc(C)c(S(=O)(=O)NCC(c2ccco2)N2CCOCC2)c(C)c1 (stereo not drawn)	inactive: 0.042%
CCc1nc2c(cnn2-c2ccc(C)cc2)c(=O)n1Cc1ccccc1	inactive: 22.6%
CCOC(=O)N1CCc2c(sc3c2c(=O)n(Cc2ccccc2)c(=O)n3Cc2cccc(C)c2)C1	inactive: 19.6%
CCn1c(=O)cc(OCC(=O)NCc2ccccc2OC)c2ccccc21	inactive: -25%
COc1ccc(NC(=O)c2cc(C)nc3c2c(C)nn3-c2ccc(C)cc2)cc1OC	inactive: 2.21%
C=CCC(CC=C)(CNC(=O)C(=O)Nc1ccc(C)cc1)c1ccccc1	inactive: -0.997%
COc1cccc(Cn2c(=O)n(-c3cccc(Cl)c3)c(=O)c3c4c(sc32)CN(C(C)=O)CC4)c1	inactive: -22.7%
CCOc1cc(OCC)cc(C(=O)Nc2cccc(-c3nc4ccccc4[nH]3)c2)c1	inactive: -15.7%
COc1ccccc1-c1nnc(C2CCN(C(=O)c3cccc(C)c3)CC2)o1	inactive: 0.948%
O=C(CSc1cn(CC(=O)N2CCCCC2)c2ccccc12)NCc1ccccc1	inactive: -8.4%
